# Experimental data as given in the supplement of paper PMC10126150.
# Values marked as one replicate rest on one cluster of the flow cell; about a third of the high ones do not repeat.
# System: ATP
# Assay: switch fluorescence ratio, 500 uM ATP over buffer (Cy3 cluster intensity, sum of 5 cycles each) (fold (ratio)); higher = stronger signal-on switching upon ATP binding; sequences stand for … in TCGTCGGCAGCGTCAGATGTGTATAAGAGACAGTTTTTTTTTTTTTTTTTTTTTTTTT…TC
# Conditions: aptamer strand: ATP DNA aptamer (quencher-CACCTGGGGGAGTATTGCGGAGGAAGG + anchor), 100 nM annealed; ATP concentration: 500 uM; one replicate
# How it was run: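 Cy3-labelled switching-strand clusters on a modified Illumina MiSeq flow-cell were annealed to 100 nM quencher-labelled ATP aptamer and imaged first in selection buffer, then after 15 min with 500 uM ATP at 22 °C. NaOH stripping and re-annealing separated each of five buffer/ATP cycles, and clusters outside 100-1000 RFU were excluded. The fluorescence ratio sums target-cycle Cy3 intensity over buffer-cycle Cy3 intensity per cluster and averages it per switch-domain sequence.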
# 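Also: ATP exposure 15 min at 22 °C before imaging.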
row,Sequence,switch fluorescence ratio
1,TCAGAGGATA,1.04
2,ATAATTCAGA,0.987
3,AACATCCGAC,1.77
4,AGGTCAAACC,1.24
5,TTCGGTTCAT,1.13
6,TTGCTCGGAT,0.994
7,TGTAGTAAAA,0.996
8,GATGGCCCTA,1.05
9,GTCTTGATAT,0.975
10,GTCGAGCATA,1.13
11,TTGTGACGAC,1.09
12,GGCGTCGCAA,1.21
13,GGAAGGCCCG,0.974
14,GACTTCGG,1.01
15,TTTTGTTA,0.988
16,GGATGGTCGG,1.02
17,CTCCGTTGGG,1.92
18,TGATGTTTGT,0.943
19,AACACTTATT,1.01
20,AACTGGCGAG,1.03
21,TATGGGTCC,1.02
22,GAGCGACAAA,0.982
23,GAAGCTGGGG,1.04

row,Sequence,switch fluorescence ratio
1,TTCCAAGTTG,1.01
2,GATTGTCGCA,0.954
3,ACTGTTTGAC,0.98
4,GGTGAGGGTT,0.996
5,TAGCTCTGTT,0.978
6,ACAGCAGGCG,1.03
7,CGTTAGACAT,0.986
8,GTTGTGTACG,1.01
9,CGTACTTCGT,0.989
10,CTCGGTCAGA,1.03
11,AATGTGAGGC,0.944
12,CGATCGTAAG,1
13,GCGTGGTACT,1.06
14,GAGGGAATGA,1.08
15,TATCGGTGGT,1.34
16,CGAAGTGAAG,1.01
17,CGTTAGCGCG,0.979
18,TACCGTCACG,1.21
19,CATCCCCAAG,1.58
20,AGTATTTCTG,1.05
21,GCATAATTAG,1.02
22,CCAATTCTTA,1.01
23,CAGGGCCACA,1.05

row,Sequence,switch fluorescence ratio
1,CGTCTAACTA,1
2,ACATAGCCGC,1.01
3,GACATGAGAC,1.07
4,GAAGGGTAGG,1.04
5,CCTCCTAAAG,2.87
6,AATTAATTAC,0.998
7,ACGGTGCTCG,0.946
8,TATTGCGCAC,1.12
9,CTCTCATAAA,1.13
10,CGGTTCATGG,0.993
11,CATTTCTCCT,1.04
12,CTAGTCCAT,0.978
13,GGAGTGTTGT,0.964
14,GGACTTGCTG,1.05
15,CCCAATCCAA,1.07
16,AGCCGGCTAT,1
17,CGCAAACCTG,1.21
18,CATAGACACC,1.04
19,TTGAGAATAT,1.01
20,AACGTTACTG,1.45
21,AGGCATTTG,1.01
22,TTGGCCCATA,0.966
23,TACTGCAGTT,0.974

row,Sequence,switch fluorescence ratio
1,GCGTGTAGCC,0.967
2,CGGTGGCGCT,1.06
3,TCCGAGTGGG,1.05
4,AGTACCGCTT,1.1
5,GACAGCCCGA,0.955
6,TGTAGTATCT,1.01
7,AGCCAATCCA,1
8,AGTTTTCACT,0.999
9,GACGGATCGG,0.996
10,TCAACGAGGC,1.02
11,CGGCTATTT,0.979
12,CTAGGTCCAT,1.01
13,CCGGGCTTAT,1.5
14,GTTTCTATAG,0.984
15,CAAACCCCCC,1.22
16,CAAACATTGA,1.01
17,TCGTATTTG,1
18,CGTTGCATGT,0.958
19,TGGATGTGTC,0.986
20,CTTCATCGGA,1.05
21,TAGGCAAAGG,1
22,TAGACACTTG,1.03
23,GTCATTGAC,1.04

row,Sequence,switch fluorescence ratio
1,AAGACCCAAT,1.06
2,GACTCACCAT,1.22
3,ATCGTTCCGG,1
4,TCTTCGTGTG,1.09
5,AGTTGGATGA,0.995
6,AAGCGGGGTA,0.989
7,TTCCGCCTCG,1.21
8,TTCTGCCGCG,0.97
9,ACACATCGCG,0.984
10,CGTACTGTTT,0.995
11,AGTTGTTAAG,1.02
12,GATTAAGGTC,1.05
13,CCTGCGGATC,3.06
14,TTAAAGCCCG,1.01
15,TCCTTAATAT,1.05
16,ATAGAGGGAA,0.978
17,TGGATGGTCG,0.952
18,TATCAGCGG,0.994
19,TTATGGATC,0.992
20,GCATGGGAAG,1.01
21,GTGTACCAAG,1.01
22,TATCGATAGC,1.03
23,AATATGGCCA,0.999

row,Sequence,switch fluorescence ratio
1,TCTTATGTCA,1
2,GCGTTTAACG,1.01
3,GATAACCCAT,0.949
4,GCAGTATAGT,1.01
5,GACGTAGCAC,5.16
6,CCATCAAGCA,1.45
7,ACAGTCCCGT,1.04
8,GGTATTTAAG,1.01
9,CACGAGGACC,0.975
10,AAACCATCTT,1.03
11,GTCACAGAAT,1.04
12,TTAGATGGG,0.988
13,GCATGTGAGG,1.01
14,ATGTTTTGTC,1.09
15,GGTCGTTCGA,1
16,CCTTGTGGTG,0.977
17,ACTCGTATTG,1.02
18,TCGAGTCACG,1.06
19,ATTCTCACAG,1.02
20,TCCAGCCAGT,1.01
21,TCCAATTAGC,1.04
22,TTTGAATGGT,1.01
23,GACTATAACG,1

row,Sequence,switch fluorescence ratio
1,CGTTGTTGTG,1.01
2,AATTATTGCG,1
3,ACCGCCGCAC,1.73
4,GTTACGCCGC,1.11
5,CTAGGACGCA,1.47
6,AGCACGACTG,0.987
7,GCGAGAGCGG,0.989
8,GATGAGGCAA,1.02
9,GGTATGTCAA,0.964
10,AGTAAGCTGG,1.07
11,TCCCTCCCTT,1.16
12,CCACCTTTG,1.03
13,ATCGGGGAGT,1.01
14,TTGATTATGA,1.02
15,CGTTGCAGCG,1.02
16,AGAAGTCGCA,0.997
17,CTTGATGCCG,1.04
18,TATGGCCCAT,1.01
19,CATGAAATGG,1.01
